Experimental data taken from the supplement of paper PMC8728848.
Some of the results follow.

Columns and labels:
Assay in all cases: glycan array binding signal (z-score within array); higher = stronger binding
Conditions in all cases: glycan notation: IUPAC condensed, linker removed
[1] = target: Neu5Ac(a2-3)Gal(b1-4)GlcNAc(b1-3)Gal(b1-4)GlcNAc(b1-3)Gal(b1-4)GlcNAc
Summary of the method: (§1)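 Glycan array data were curated from 3228 arrays in the Consortium for Functional Glycomics database and kept only where the protein sequence was available. Glycan names were converted to IUPAC-condensed notation, and columns mapping to the same glycan were averaged. The binding signal is a within-array Z-score, averaged across arrays of the same protein sequence at different concentrations or buffers and across linkers. Negative Z-scores can be read as non-binding.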

[2] = target: Neu5Ac(a2-3)Gal(b1-4)GlcNAc(b1-3)Gal(b1-4)GlcNAc(b1-3)Gal(b1-4)GlcNAc(b1-2)Man(a1-3)[Neu5Ac(a2-3)Gal(b1-4)GlcNAc(b1-3)Gal(b1-4)GlcNAc(b1-3)Gal(b1-4)GlcNAc(b1-2)Man(a1-6)]GalNAc
Summary of the method: as §1

[3] = target: Neu5Ac(a2-3)Gal(b1-4)GlcNAc(b1-3)Gal(b1-4)GlcNAc(b1-3)GalNAc
Summary of the method: as §1

[4] = target: Neu5Ac(a2-3)Gal(b1-4)GlcNAc(b1-3)Gal(b1-4)GlcNAc(b1-3)[Neu5Ac(a2-3)Gal(b1-4)GlcNAc(b1-3)Gal(b1-4)GlcNAc(b1-6)]GalNAc
Summary of the method: as §1

[5] = target: Neu5Ac(a2-3)Gal(b1-4)GlcNAc(b1-3)Gal(b1-4)GlcNAc(b1-6)[Gal(b1-3)]GalNAc
Summary of the method: as §1

[6] = target: Neu5Ac(a2-3)Gal(b1-4)GlcNAc(b1-3)Gal(b1-4)[Fuc(a1-3)]GlcNAc
Summary of the method: as §1

[7] = target: Neu5Ac(a2-3)Gal(b1-4)GlcNAc(b1-3)GalNAc
Summary of the method: as §1

[8] = target: Neu5Ac(a2-3)Gal(b1-4)GlcNAc(b1-3)[Neu5Ac(a2-3)Gal(b1-4)GlcNAc(b1-6)]GalNAc
Summary of the method: as §1

[9] = target: Neu5Ac(a2-3)Gal(b1-4)GlcNAc(b1-6)GalNAc
Summary of the method: as §1

[10] = target: Neu5Ac(a2-3)Gal(b1-4)GlcNAc(b1-6)[Gal(b1-3)]GalNAc
Summary of the method: as §1

[11] = target: Neu5Ac(a2-3)Gal(b1-4)GlcNAc(b1-6)[Neu5Ac(a2-3)Gal(b1-3)]GalNAc
Summary of the method: as §1

[12] = target: Neu5Ac(a2-3)Gal(b1-4)GlcNAc6S
Summary of the method: as §1

[13] = target: Neu5Ac(a2-3)Gal(b1-4)[Fuc(a1-3)]GlcNAc
Summary of the method: as §1

[14] = target: Neu5Ac(a2-3)Gal(b1-4)[Fuc(a1-3)]GlcNAc(b1-2)Man
Summary of the method: as §1

[15] = target: Neu5Ac(a2-3)Gal(b1-4)[Fuc(a1-3)]GlcNAc(b1-3)Gal
Summary of the method: as §1

[16] = target: Neu5Ac(a2-3)Gal(b1-4)[Fuc(a1-3)]GlcNAc(b1-3)Gal(b1-4)GlcNAc
Summary of the method: as §1

[17] = target: Neu5Ac(a2-3)Gal(b1-4)[Fuc(a1-3)]GlcNAc(b1-3)Gal(b1-4)[Fuc(a1-3)]GlcNAc(b1-3)Gal(b1-4)[Fuc(a1-3)]GlcNAc
Summary of the method: as §1

[18] = target: Neu5Ac(a2-3)Gal(b1-4)[Fuc(a1-3)]GlcNAc(b1-3)GalNAc
Summary of the method: as §1

[19] = target: Neu5Ac(a2-3)Gal(b1-4)[Fuc(a1-3)]GlcNAc(b1-6)[Gal(b1-3)]GalNAc
Summary of the method: as §1

[20] = target: Neu5Ac(a2-3)Gal(b1-4)[Fuc(a1-3)]GlcNAc(b1-6)[Neu5Ac(a2-3)Gal(b1-3)]GalNAc
Summary of the method: as §1

[21] = target: Neu5Ac(a2-3)Gal(b1-4)[Fuc(a1-3)]GlcNAc6S
Summary of the method: as §1

[22] = target: Neu5Ac(a2-3)Gal6S(b1-4)GlcNAc
Summary of the method: as §1

[23] = target: Neu5Ac(a2-3)Gal6S(b1-4)[Fuc(a1-3)]GlcNAc
Summary of the method: as §1

[24] = target: Neu5Ac(a2-3)GalNAc
Summary of the method: as §1

[25] = target: Neu5Ac(a2-3)GalNAc(b1-4)GlcNAc
Summary of the method: as §1

[26] = target: Neu5Ac(a2-3)[GalNAc(b1-4)]Gal(b1-4)Glc
Summary of the method: as §1

[27] = target: Neu5Ac(a2-3)[GalNAc(b1-4)]Gal(b1-4)GlcNAc
Summary of the method: as §1

[28] = target: Neu5Ac(a2-3)[GalNAc(b1-4)]Gal(b1-4)GlcNAc(b1-3)GalNAc
Summary of the method: as §1

[29] = target: Neu5Ac(a2-3)[Neu5Ac(a2-6)]GalNAc
Summary of the method: as §1

[30] = target: Neu5Ac(a2-6)Gal
Summary of the method: as §1

[31] = target: Neu5Ac(a2-6)Gal(b1-3)GlcNAc(b1-3)[Gal(b1-4)GlcNAc(b1-6)]Gal(b1-4)Glc
Summary of the method: as §1

[32] = target: Neu5Ac(a2-6)Gal(b1-4)Glc
Summary of the method: as §1

[33] = target: Neu5Ac(a2-6)Gal(b1-4)GlcNAc
Summary of the method: as §1

[34] = target: Neu5Ac(a2-6)Gal(b1-4)GlcNAc(b1-2)Man
Summary of the method: as §1

[35] = target: Neu5Ac(a2-6)Gal(b1-4)GlcNAc(b1-2)Man(a1-3)Man(b1-4)GlcNAc(b1-4)GlcNAc
Summary of the method: as §1

[36] = target: Neu5Ac(a2-6)Gal(b1-4)GlcNAc(b1-2)Man(a1-3)[Gal(b1-4)GlcNAc(b1-2)Man(a1-6)]Man(b1-4)GlcNAc(b1-4)GlcNAc
Summary of the method: as §1

[37] = target: Neu5Ac(a2-6)Gal(b1-4)GlcNAc(b1-2)Man(a1-3)[GlcNAc(b1-2)Man(a1-6)]Man(b1-4)GlcNAc(b1-4)GlcNAc
Summary of the method: as §1

[38] = target: Neu5Ac(a2-6)Gal(b1-4)GlcNAc(b1-2)Man(a1-3)[GlcNAc(b1-4)][Neu5Ac(a2-6)Gal(b1-4)GlcNAc(b1-2)Man(a1-6)]Man(b1-4)GlcNAc(b1-4)GlcNAc
Summary of the method: as §1

B1: Epa3to1 (Candida glabrata) (protein)
chain: MGSSHHHHHHSSGLVPRGSHMKRELSSQNPFGYPIGCSPQDVAIIPGLTMELYSYPIVSGTPPNCYDASYVDPEYPRTGYLKRKMVGKSTGVTGNLNYKYSVEKACMVKYGNLPAGYNYNEPLTVSNFTMILYGYFKAQTTGLHTFFVNADDLLYINFGAGNAFDCCKREDSKTKLGEYVAYDIWHVDSSKNKVSLFLEKDLYYPIRMFFNNREYDSSLDLSFSVNGATDQISDFSGYLYSVPDQPDTCPAHIGYDTTCR
In the case of B1, the “glycan array binding signal (z-score)” value [1] is reported as -0.391, the “glycan array binding signal (z-score)” value [2] is reported as 0.158 and the “glycan array binding signal (z-score)” value [3] is reported as 0.164. The “glycan array binding signal (z-score)” value [4] was -0.223, the “glycan array binding signal (z-score)” value [5] was -0.181 and the “glycan array binding signal (z-score)” value [6] was -0.99. For the same binder, the “glycan array binding signal (z-score)” value [7] was -0.273, the “glycan array binding signal (z-score)” value [8] was 0.192 and the “glycan array binding signal (z-score)” value [9] was -0.321. The “glycan array binding signal (z-score)” value [10] was 0.66, the “glycan array binding signal (z-score)” value [11] was -0.382 and the “glycan array binding signal (z-score)” value [12] was -0.83. For the same binder, the “glycan array binding signal (z-score)” value [13] was -0.596, the “glycan array binding signal (z-score)” value [14] was -0.113 and the “glycan array binding signal (z-score)” value [15] was -0.134. The “glycan array binding signal (z-score)” value [16] was -0.257, the “glycan array binding signal (z-score)” value [17] was -1.17 and the “glycan array binding signal (z-score)” value [18] was 0.21. The “glycan array binding signal (z-score)” value [19] was -0.151, the “glycan array binding signal (z-score)” value [20] was 0.091 and the “glycan array binding signal (z-score)” value [21] was 0.029. The “glycan array binding signal (z-score)” value [22] was -0.262, the “glycan array binding signal (z-score)” value [23] was -1.06 and the “glycan array binding signal (z-score)” value [24] was -0.62. The “glycan array binding signal (z-score)” value [25] was -0.962, the “glycan array binding signal (z-score)” value [26] was -0.679 and the “glycan array binding signal (z-score)” value [27] was -0.706. For the same binder, the “glycan array binding signal (z-score)” value [28] was -0.334, the “glycan array binding signal (z-score)” value [29] was -0.413 and the “glycan array binding signal (z-score)” value [30] was -0.784. For the same binder, the “glycan array binding signal (z-score)” value [31] was -0.458, the “glycan array binding signal (z-score)” value [32] was -0.18 and the “glycan array binding signal (z-score)” value [33] was -0.371. The “glycan array binding signal (z-score)” value [34] was -0.272, the “glycan array binding signal (z-score)” value [35] was 0.455 and the “glycan array binding signal (z-score)” value [36] was -0.265. For the same binder, the “glycan array binding signal (z-score)” value [37] was 0.377 and the “glycan array binding signal (z-score)” value [38] was -0.342.
